Here are results for 1 molecule from patent publication US20030219427A1 (BASF AKTIENGESELLCHAFT, published 2003).

One assay concerns the target T1, HA-p105Δ498-541; ΔDD (Homo sapiens (Human), UniProt P19838 1-968).
T1 construct: limits combined from the two single deletions
T1 sequence: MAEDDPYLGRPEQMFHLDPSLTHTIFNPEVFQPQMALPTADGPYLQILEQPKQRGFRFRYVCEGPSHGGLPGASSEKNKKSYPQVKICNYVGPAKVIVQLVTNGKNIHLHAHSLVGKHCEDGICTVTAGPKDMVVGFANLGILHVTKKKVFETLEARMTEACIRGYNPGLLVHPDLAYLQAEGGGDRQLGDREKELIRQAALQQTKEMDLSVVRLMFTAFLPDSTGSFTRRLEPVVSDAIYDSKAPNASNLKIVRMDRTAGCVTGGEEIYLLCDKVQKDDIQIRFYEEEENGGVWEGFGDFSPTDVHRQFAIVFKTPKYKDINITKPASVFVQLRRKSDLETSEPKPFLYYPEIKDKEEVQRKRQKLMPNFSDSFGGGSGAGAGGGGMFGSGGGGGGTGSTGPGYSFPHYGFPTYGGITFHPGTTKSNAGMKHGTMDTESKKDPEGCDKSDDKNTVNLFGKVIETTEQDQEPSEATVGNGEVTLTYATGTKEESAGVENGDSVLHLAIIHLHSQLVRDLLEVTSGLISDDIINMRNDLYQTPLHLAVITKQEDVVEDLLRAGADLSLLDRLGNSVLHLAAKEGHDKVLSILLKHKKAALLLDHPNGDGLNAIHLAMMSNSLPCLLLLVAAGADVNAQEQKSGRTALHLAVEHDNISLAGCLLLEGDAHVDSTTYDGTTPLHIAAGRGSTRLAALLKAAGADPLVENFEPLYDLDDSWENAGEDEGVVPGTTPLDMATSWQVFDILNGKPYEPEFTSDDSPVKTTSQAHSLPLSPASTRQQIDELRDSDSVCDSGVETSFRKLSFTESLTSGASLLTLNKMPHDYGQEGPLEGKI
The assay is described as follows: anti-HA co-immunoprecipitation from co-transfected 293 cells. The method, then:
(§1) Cell lysates were prepared using Buffer A (Beinke, S, et al. (2002) J. Biol. Chem. 277: 24162-24168). Immunoprecipitation and Western blotting of transfected proteins were carried out as described (Kabouridis, P. S., et al. 1997. EMBO J. 16:4983-4998), using the indicated antibodies.
(§2) These p105 constructs and HA-p105 constructs in which the p105 DD alone was mutated (HA-p105ΔDD and HA-p105L842A) were individually co-expressed with wild type TPL-2 in 293 cells and immunoprecipitated from cell lysates with anti-HA antibody. The extent of co-immunoprecipitation of TPL-2 was reduced by deletion or point mutation of the DD compared with wild type HA-p105. […] However, no association of TPL-2 was detected with either of the double binding site mutants. […] Thus, each of the identified binding sites makes a substantial contribution to TPL-2 association with p105 in vivo and both are required for optimal complex formation.

For the next assay, the target named is T2, HA-p105Δ498-541; L842A (Homo sapiens (Human), UniProt P19838 1-968).
T2 sequence: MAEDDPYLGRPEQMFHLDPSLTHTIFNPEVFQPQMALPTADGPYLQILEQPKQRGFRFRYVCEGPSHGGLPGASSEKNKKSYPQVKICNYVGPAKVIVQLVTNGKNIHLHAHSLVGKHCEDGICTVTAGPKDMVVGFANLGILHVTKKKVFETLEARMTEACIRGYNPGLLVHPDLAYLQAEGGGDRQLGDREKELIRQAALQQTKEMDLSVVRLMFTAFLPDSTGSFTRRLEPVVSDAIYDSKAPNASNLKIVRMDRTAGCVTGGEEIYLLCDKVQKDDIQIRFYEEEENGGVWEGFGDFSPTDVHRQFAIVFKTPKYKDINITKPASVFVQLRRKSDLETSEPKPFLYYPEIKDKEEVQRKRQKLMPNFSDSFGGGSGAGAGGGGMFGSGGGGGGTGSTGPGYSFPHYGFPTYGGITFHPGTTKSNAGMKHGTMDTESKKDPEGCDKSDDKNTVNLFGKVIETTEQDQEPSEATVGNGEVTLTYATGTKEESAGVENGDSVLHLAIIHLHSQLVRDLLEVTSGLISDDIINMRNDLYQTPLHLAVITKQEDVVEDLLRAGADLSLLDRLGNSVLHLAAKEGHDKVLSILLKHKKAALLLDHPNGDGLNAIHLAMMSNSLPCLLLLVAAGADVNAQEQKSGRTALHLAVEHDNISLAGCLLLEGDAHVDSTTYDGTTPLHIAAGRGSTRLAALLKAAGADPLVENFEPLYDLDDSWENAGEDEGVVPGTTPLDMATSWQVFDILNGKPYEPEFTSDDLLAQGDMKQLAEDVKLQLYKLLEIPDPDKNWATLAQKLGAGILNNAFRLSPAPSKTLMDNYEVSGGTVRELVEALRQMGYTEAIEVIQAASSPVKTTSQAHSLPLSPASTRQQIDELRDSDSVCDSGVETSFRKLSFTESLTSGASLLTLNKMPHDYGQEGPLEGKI
Described as above. The method, then: as §1, §2

The target in a further assay is T3, HA-p100 (UniProt Q00653 1-900).
T3 sequence (looked up): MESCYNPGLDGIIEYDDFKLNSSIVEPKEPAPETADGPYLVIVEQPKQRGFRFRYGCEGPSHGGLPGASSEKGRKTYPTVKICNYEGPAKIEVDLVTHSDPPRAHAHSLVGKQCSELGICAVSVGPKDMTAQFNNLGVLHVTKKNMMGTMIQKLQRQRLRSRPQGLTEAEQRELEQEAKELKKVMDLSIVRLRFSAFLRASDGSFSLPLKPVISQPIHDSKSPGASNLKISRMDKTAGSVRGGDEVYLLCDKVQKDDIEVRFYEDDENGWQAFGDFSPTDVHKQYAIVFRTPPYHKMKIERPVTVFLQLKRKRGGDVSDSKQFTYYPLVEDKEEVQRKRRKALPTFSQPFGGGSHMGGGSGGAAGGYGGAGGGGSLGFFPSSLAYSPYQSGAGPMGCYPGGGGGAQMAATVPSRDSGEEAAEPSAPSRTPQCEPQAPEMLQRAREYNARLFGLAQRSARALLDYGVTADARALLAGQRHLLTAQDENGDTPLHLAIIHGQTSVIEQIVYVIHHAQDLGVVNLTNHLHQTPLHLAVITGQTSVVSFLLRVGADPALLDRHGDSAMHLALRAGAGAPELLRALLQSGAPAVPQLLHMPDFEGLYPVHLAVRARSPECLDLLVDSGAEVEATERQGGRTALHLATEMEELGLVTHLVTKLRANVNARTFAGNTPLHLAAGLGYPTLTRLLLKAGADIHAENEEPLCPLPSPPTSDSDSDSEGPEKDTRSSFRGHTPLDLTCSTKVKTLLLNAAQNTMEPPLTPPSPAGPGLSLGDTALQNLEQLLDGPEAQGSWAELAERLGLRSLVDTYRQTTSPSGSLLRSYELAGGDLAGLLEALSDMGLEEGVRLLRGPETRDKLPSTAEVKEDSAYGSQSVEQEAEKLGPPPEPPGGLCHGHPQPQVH
The assay is described as follows: co-expression in HEK 293 cells. The method, then:
as §1

In another assay the target is T4, NF-κB1 p105 (Homo sapiens (Human), UniProt P19838 1-968).
T4 construct: Untagged p105 translated in vitro (cDNA of Blank et al. 1991 in pRc-CMV); also called untagged p105
T4 sequence: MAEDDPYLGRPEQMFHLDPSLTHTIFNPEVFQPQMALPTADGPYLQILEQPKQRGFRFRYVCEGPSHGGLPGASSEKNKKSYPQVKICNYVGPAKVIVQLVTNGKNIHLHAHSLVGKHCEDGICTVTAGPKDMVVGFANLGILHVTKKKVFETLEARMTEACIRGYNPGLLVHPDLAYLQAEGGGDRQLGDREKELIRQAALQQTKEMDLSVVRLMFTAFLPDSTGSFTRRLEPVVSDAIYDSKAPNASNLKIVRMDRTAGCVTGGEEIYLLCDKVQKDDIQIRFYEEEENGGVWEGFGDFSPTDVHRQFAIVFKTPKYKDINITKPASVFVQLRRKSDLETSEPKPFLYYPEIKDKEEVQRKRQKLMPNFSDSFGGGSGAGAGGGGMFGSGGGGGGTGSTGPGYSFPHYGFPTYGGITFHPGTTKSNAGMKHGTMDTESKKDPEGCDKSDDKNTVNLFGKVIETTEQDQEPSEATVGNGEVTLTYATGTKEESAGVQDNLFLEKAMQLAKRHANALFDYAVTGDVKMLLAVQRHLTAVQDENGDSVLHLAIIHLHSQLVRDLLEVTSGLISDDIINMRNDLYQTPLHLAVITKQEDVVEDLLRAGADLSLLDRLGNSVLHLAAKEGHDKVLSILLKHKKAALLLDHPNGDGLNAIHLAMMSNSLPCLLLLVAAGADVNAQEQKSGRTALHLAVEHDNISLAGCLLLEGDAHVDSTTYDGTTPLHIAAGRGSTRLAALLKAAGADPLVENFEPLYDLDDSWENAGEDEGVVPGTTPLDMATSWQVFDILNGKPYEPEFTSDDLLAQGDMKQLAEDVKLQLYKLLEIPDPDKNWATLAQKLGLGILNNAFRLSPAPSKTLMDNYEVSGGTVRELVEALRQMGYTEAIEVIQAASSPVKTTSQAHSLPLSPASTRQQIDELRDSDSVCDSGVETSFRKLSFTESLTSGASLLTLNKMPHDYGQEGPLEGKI
Nature of the assay: complex isolated with anti-TPL-2 antibody from in vitro translation with p105 in excess. The protocol: 32 out of 68 positive clones obtained encode the IκB-like C-terminus of NF-κB1 p105 (FIG. 2a). Co-immunoprecipitation of p105 with TPL-2, synthesized together by cellfree translation, confirms that the two proteins interact at high stoichiometry (FIG. 1b). TPL-2 and p105 are synthesized together, and labeled with [³⁵S]-Met (Amersham-Pharmacia Biotech), by cell-free translation using the Promega TNT coupled rabbit reticulocyte system. Translated proteins are diluted in lysis buffer A (Salmeron, A., et al. (1996) EMBO J 15: 817-826) plus 0.1 mg/ml BSA and immunoprecipitated as described in the above-cited reference.

B1: TPL-2 (enzyme)
chain: not shown
notes: also called full length TPL-2; wild type TPL-2
For the molecule B1, the binding result in the assay with HA-p105Δ498-541; ΔDD, with HA-p105Δ498-541; L842A and in the assay with HA-p100 was “no binding” each time. Besides, in the assay with NF-κB1 p105, the “stoichiometry of the TPL-2/p105 complex” value is ~1 TPL-2:p105.
